Results published in PubChem BioAssay AID652104 (National Center for Advancing Translational Sciences (NCATS), 2013).
Out of some 410,000 compounds screened, about 7,200 (1.8%) were called active. The shares of active, inactive and inconclusive entries below differ from those in the screen. Calls follow the shape of the dose curve; as a rule, active = well fitted activation curve with a large enough effect; inconclusive = small, poorly fitted or top-dose-only effect, or another doubt; inactive = no such curve, though single readings can be large or run the other way. Potencies of inconclusive entries are left out as doubtful fits.

Experiment: qHTS of TDP-43 Inhibitors; also: nearly all actives have a fitted effect of over 50% in size; as to growth rescue (activation): % of control where 0% means no effect
Details: TDP-43 expressing yeast growth rescue, BacTiter-Glo, 24 h; growth rescue (activation): at 46.1 µM (top of the series) unless noted
Method in brief: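 Cell-based yeast growth screen: TDP-43 expression induced in galactose, inoculum OD600=0.02 after raffinose pregrowth to mid-log. Read-out BacTiter-Glo luminescence at 24 hr, 30 deg C; inhibition of toxicity seen as signal increase.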
Potency is read from the fitted curve at half-maximal effect; tags tell the direction and shape of the fitted curve.

Compound	Potency	growth rescue (activation)
Clc1cccc(-n2ncc3c(NC4CCCCC4)ncnc32)c1	active: 15.8 µM	–
Cc1nc2ccc(C(=O)NCc3ccc4c(c3)OCO4)cc2s1	inconclusive [activator, single point]	–
Cc1ccc(-n2c3nc(=O)[nH]c(=O)c-3cc3cc([N+](=O)[O-])ccc32)cc1	inconclusive [activator, partial curve]	–
CC(c1ccco1)N(C(=O)c1cccc(S(=O)(=O)N(C)C)c1)c1ccccn1 (configuration not stated)	–	inactive: 6.57%
COc1ccccc1C/C(N)=N/OC(=O)c1cccs1	–	inconclusive: -81.6% [activator]
CCOC(=O)Cc1ncccc1C(=O)Nc1ccc(OC)cc1	inconclusive [activator, full curve, poor fit]	–
CC(=O)c1cccc(S(=O)(=O)Nc2c(C)nn(C)c2C)c1	–	inactive: 15.8%
Cc1ccsc1C(=O)OCC(=O)Nc1c(Cl)cccc1C(F)(F)F	inconclusive [activator, full curve]	–
O=[N+]([O-])c1cccnc1N1CCC(c2cc(-c3ccc(Cl)cc3Cl)n[nH]2)CC1	inconclusive [activator, single point]	–
CC(CNC(=O)CCn1c(=O)c2cccn2c2ccc(F)cc21)c1ccccc1 (configuration not stated)	inactive	–
N#C/C(=C\c1ccccc1OCc1ccc(C(=O)O)cc1)C(=O)Nc1ccc(O)cc1	inconclusive [activator, full curve, poor fit]	–
CCOc1ccc(-c2nnc(SCC(=O)Nc3ccccc3C(F)(F)F)o2)cc1	inconclusive [activator, partial curve, poor fit]	–
COc1ccc(NC(=O)CN(C)C(=O)c2cc3c(s2)CCC3)cc1	–	inactive: 8.16%
Cc1ccc(-c2cn3c(n2)sc2cc(C(=O)NCCC4=CCCCC4)ccc23)c(C)c1	–	inactive: 12.5% [at 9.22 µM]
CCOc1ccc(S(=O)(=O)NCC(c2ccc(N(C)C)cc2)N2CCCC2)cc1 (configuration not stated)	–	inactive: 7.6%
CC1(C)Cc2ccccc2-c2nnc(SCc3ccc(C#N)cc3)n21	active: 12.6 µM	–
Fc1ccc(/C=N/NC(=S)Nc2cccnc2)cc1F	inconclusive [activator, partial curve]	–
Cc1cccc(C)c1Nc1c(-c2ccccc2Cl)nc2cnccn12	inconclusive [activator, single point]	–
COc1ccc(-c2csc(NC(=O)Cc3ccccc3F)n2)c(OC)c1	active: 12.6 µM	–
CCc1nn(CC(=O)Nc2ccc(C)c(F)c2)c(=O)c2cc3cc(C)ccc3n12	–	inactive: 7.95%
Cc1ccc(-c2onc(C)c2C)cc1S(=O)(=O)NCc1cccs1	active: 15.8 µM	–
S=C(NCCc1ccccc1)NCCc1ccccc1	–	inactive: 22.1%
O=C(CN(Cc1ccccc1)C(=O)CCl)c1cccc(Br)c1	inconclusive [activator, partial curve]	–
CCC1=Nc2cc(C(=O)O)ccc2Sc2ccccc21	active: 20 µM	–

Compound	Potency	growth rescue (activation)
Cc1ccc(CNC(=O)c2nnn(-c3cccc(C)c3)c2N)cc1	inconclusive [activator, full curve]	–
Cc1nc2scc(C)n2c(=O)c1S(=O)(=O)Nc1cccc(O)c1	inconclusive [activator, full curve, poor fit]	–
c1ccc(C(c2nnnn2Cc2ccco2)N2CCN(c3nc4ccccc4s3)CC2)cc1 (configuration not stated)	inconclusive [activator, single point]	–
O=C(NCC(=O)N1CCN(c2ncc(C(F)(F)F)cc2Cl)CC1)c1ccc(Br)o1	inconclusive [activator, partial curve]	–
C/C(=N/OC(=O)c1ccc(Br)cc1)c1ccc(C)cc1	inconclusive [activator, full curve, poor fit]	–
CC(=O)c1ccc(N2CCN(C(=O)C3CCN(S(=O)(=O)c4ccc(Br)s4)CC3)CC2)cc1	–	inactive: 24.9%
Cc1oc2c(c1C(=O)N1CCOCC1)C(=O)c1ccccc1C2=O	inconclusive [activator, single point]	–
O=C(Nc1nc2c(s1)CCCC2)c1ccc2ncsc2c1	active: 12.6 µM	–
O=C(c1c(Cl)nc2sccn12)N1CCCc2ccccc21	inconclusive [activator, single point]	–
CCc1ccc(NC2=CC(=O)C(=O)c3ccccc32)cc1	inconclusive [activator, single point]	–
Cn1ccc2c(-c3ccc(F)nc3)cc3c(c21)C1CCC3O1 (configuration not stated)	inconclusive [activator, partial curve, poor fit]	–
Cc1cc([N+](=O)[O-])c(N2CCC[C@@H]2C(=O)O)c([N+](=O)[O-])c1	–	inactive: -26.4%
Cc1ccc(C(=O)Nc2nc(C(C)(C)C)cs2)s1	active: 14.1 µM	–
O=C(CNS(=O)(=O)c1cccs1)N1CCN(c2ccccc2Cl)CC1	inconclusive [activator, partial curve, poor fit]	–
N#Cc1nc(Cc2ccccc2)oc1NCc1cccnc1	–	inactive: -2.93%
OC(COc1ccc(Cl)cc1Cl)Cn1ccnc1 (configuration not stated)	–	inactive: 10.7%
CCOC(=O)c1ccc(CN(Cc2ccc(F)cc2)S(=O)(=O)c2ccc(F)cc2)cc1	–	inactive: 8.35%
O=C(Nc1ccc(C(F)(F)F)cc1)c1cc(S(=O)(=O)NC2CCCCCC2)ccc1F	inconclusive [activator, single point]	–
COc1ccc(Nc2ncccc2C(=O)Nc2ccccc2)cc1	inconclusive [activator, single point]	–
Cc1cccc(C)c1-n1nnnc1C1(C)CCC(=O)N1Cc1ccc(F)cc1 (configuration not stated)	inconclusive [activator, full curve]	–
COc1ccccc1Nc1nc(NCCO)nc(N)c1[N+](=O)[O-]	–	inactive: -6.23%
COc1ccccc1CNC(=O)C1(C)CCN1C(=O)Cc1ccc(-c2ccccc2)cc1 (configuration not stated)	inconclusive [activator, single point]	–
Cc1ccc(C)c(-c2cc(C(=O)NNC(=S)NCC(C)C)c3ccccc3n2)c1	inconclusive [activator, full curve]	–
Cc1ccc(-c2csc(NC(=O)CSc3nc(C)cc(=O)[nH]3)n2)cc1	–	inactive: -20.6%

Compound	Potency	growth rescue (activation)
CC(C)n1c(=O)c2ccccc2n1Cc1cn(Cc2cccnc2)nn1	inconclusive [activator, partial curve]	–
O=C(NCCc1ccccc1)c1ccc2c(c1)N(Cc1ccc(F)cc1)C(=O)CS2	inconclusive [activator, single point]	–
Cc1cccn2cc(-c3ccc(S(=O)(=O)N4CCOCC4)cc3)nc12	inconclusive [activator, partial curve]	–
O=C1CNC(=S)N1Cc1cccc(Cl)c1	inconclusive [activator, partial curve]	–
Cn1c(=NC(=O)CCl)sc2ccccc21	inconclusive [activator, single point]	–
Cc1ccccc1NC(=O)c1cccc(NC(=O)c2ccco2)c1	inconclusive [activator, single point]	–
COCCOC(=O)c1[nH]c2c(c1C)C(=O)CC(c1ccc(F)cc1)C2 (configuration not stated)	inconclusive [activator, partial curve]	–
COc1cc(/C=C(\C#N)C(=O)Nc2cccnc2)ccc1OC(C)C	inconclusive [activator, partial curve, poor fit]	–
COc1ccc2nc(-c3ccccc3)[nH]c(=O)c2c1	inconclusive [activator, partial curve, poor fit]	–
Cc1ccc(O)c(N/C=C/C(=O)c2ccc(F)cc2)c1	inconclusive [activator, single point]	–
O=[N+]([O-])c1cc(/C=N/Nc2nc(N3CCCCC3)nc(N3CCCCC3)n2)ccc1O	active: 22.4 µM	–
Cc1cccc(-c2noc(-c3cc(C(C)C)[nH]n3)n2)c1	–	inactive: -7.53%
O=C(Cc1csc2ccccc12)NCC1CC1	inconclusive [activator, partial curve, poor fit]	–
COc1cccc(Cn2c(=O)n(CC3CCC(C(=O)NC(C)C)CC3)c(=O)c3sccc32)c1 (configuration not stated)	inconclusive [activator, single point]	–
Cc1cccc(OC(=O)CSc2nnc(-c3ccc4c(c3)OCO4)o2)c1C	–	inactive: 13.1%
O=C(Nc1ccc(NC(=O)c2ccccn2)cc1)C(=O)Nc1ccc2c(c1)OCCO2	–	inactive: -4.87%
Cc1ccc(Nc2ccccc2N)cc1	inconclusive [activator, partial curve]	–
CC(NC(=O)c1cc2c(=O)n3ccccc3nc2n(C(C)C)c1=N)c1ccccc1 (configuration not stated)	–	inactive: 9.02%
COC(=O)c1ccccc1NC(=O)c1nc(-c2ccc(C)cc2)n2c1CCCCC2	–	inactive: 14.4%
CC(C)COC(=O)N1CCCCC1c1cc(C(=O)Nc2ccccc2)no1 (configuration not stated)	inconclusive [activator, single point]	–
COc1cccc(CC(=O)OCC(=O)NCCc2ccc(F)cc2)c1	inconclusive [activator, full curve]	–
Nc1nc(N)c(N=O)c(OCC2CCCCC2)n1	inconclusive [activator, partial curve]	–
Cc1cccc(-n2ncc3c(NCc4ccco4)ncnc32)c1	inconclusive [activator, single point]	–
COC1=C(OC)C(=O)C(Sc2ccc3ccccc3c2)=CC1=O	–	inconclusive: -84% [activator]
